Data: article PMC12040169 (PLOS Biology, 2025)
The list shows a part of the results.

system: T1, C. trachomatis L2/434/Bu expressing GFP (CTL2-GFP); parameters: species or system HeLa; C. trachomatis total inclusion area by high-content imaging, normalised to DMSO; details: total inclusion area; 28.5 h, 10 µM; inhibitor
T1 construct: L2/434/Bu GFP intracellular growth in HeLa cells
How it was run: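 Post-fluorescence-read fixation, DNA staining with Hoechst and high-content imaging; GFP inclusion area and number per well, and nuclei counts, used as proxies for bacterial growth and host viability.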

Row | SMILES | % of control remaining
1 | O=C(CCCN1C(=O)c2cccc3cccc(c23)C1=O)N1CCN(Cc2ccc3c(c2)OCO3)CC1 [CBK074370] | 99.2638
2 | Cc1ccc(S(=O)(=O)N(CCO)CC2CC2)c(Cl)c1 [CBK304885] | 60.7506
3 | C[C@@H](Nc1nc(-c2cccc3cccnc23)cnc1N)c1ccccc1 [CBK063784] | 157.335
4 | CCOCC(=O)N(C)C(CO)c1cc(OC)ccc1Br (centres unmarked) [CBK304722] | 42.1235
5 | O=C1N=C(N2CCCCCC2)SC1CC(=O)N1CCCc2ccccc21 (centres unmarked) [CBK063336] | 71.805
6 | CN1CCC(N(C)C(=O)NCC2COc3ccccc3O2)C1 (centres unmarked) [CBK155994] | 89.5307
7 | Cn1c2c(c3ccccc31)CCOC21CCN(Cc2ccc(OC(F)F)cc2)CC1 [CBK039975] | 81.8503
8 | O=C(O)CSC1=CC(=O)N(c2ccc(Br)cc2)C1=O [CBK287263] | 103.504
9 | Cc1nn(C)c(C)c1CN(C)C(=O)CCC1CCCO1 (centres unmarked) [CBK283078] | 103.191
10 | Cc1csc(CNCc2c(C)nn(C)c2N(C)C)n1 [CBK304804] | 48.7109
11 | c1ccc(C(CC2CCCCC2)NCc2cccnc2)cc1 (centres unmarked) [CBK073816] | 115.258
12 | O=C(CN1CCCC1)N1CCC(c2cccc(Cc3ccc(C(F)(F)F)cc3)n2)CC1 [CBK286215] | 89.0781
13 | COCCN1CC(CNC(=O)Nc2cc(NC(C)=O)ccc2F)CC1=O (centres unmarked) [CBK304398] | 50.0064
14 | CC(=O)Nc1cccc(-c2nccnc2NCC(c2cccnc2)N(C)C)c1 (centres unmarked) [CBK037998] | 112.361
15 | Cn1cccc1C1(O)CCCC2CN(C(=O)c3ccco3)CC21 (centres unmarked) [CBK284509] | 106.387
16 | CCCCc1ccc(NC(=S)NN2CCN(C)CC2)cc1 [CBK265741] | 114.373
17 | COc1ccc(CC(=O)Nc2nnc(C)s2)cc1OC [CBK287359] | 68.5014
18 | COc1ccc(CN2CCN(C(=O)c3cccs3)CC2)cc1OC [CBK074410] | 113.509
19 | COc1cc2c(cc1CNS(=O)(=O)c1ccc3[nH]c(=O)[nH]c(=O)c3c1)CCC2 [CBK286396] | 76.6434
20 | C(#Cc1ccc(-c2cc[nH]n2)s1)c1ccccc1 [CBK023413] | 67.54
21 | Cc1cccc(-c2cc(C(=O)O)c(C)o2)c1 [CBK045855] | 98.4712
22 | O=C(Cn1cnc2c(cnn2-c2ccccc2)c1=O)N1CCc2ccccc21 [CBK287529] | 79.1822
23 | C=CCn1c(SCC(=O)Nc2ccccn2)nnc1-c1ccc(Br)cc1 [CBK022413] | 94.747
24 | CCOC(=O)CSc1nc(-c2ccc(C)cc2)cs1 [CBK007039] | 65.9427
25 | CCc1nc2ccc(C(=O)N3CCNC(=O)C3)cn2c1N(C)C(=O)COc1ccccc1 [CBK145871] | 118.78
26 | CCN(CC)S(=O)(=O)c1cc(C(=O)NC2CCCCC2)ccc1Br [CBK058354] | 64.9504
27 | Cc1ccc2oc([C@H]3CCN(Cc4ccc(C(=O)O)cc4)C3)nc2c1 [CBK289386] | 96.3657

Row | SMILES | % of control remaining
28 | Cc1nc2[nH]c(=O)nc(N)c2nc1C [CBK025658] | 50.4704
29 | CCSC(SCC)c1ccnn1-c1ccccc1 [CBK019332] | 83.2607
30 | CCOC(=O)c1cnc(O/N=C(\N)c2ccc(C(C)(C)C)cc2)nc1C(F)(F)F [CBK022142] | 105.055
31 | Cc1ccc(-n2c(C)c(C)c3c(NCCO)cnnc32)cc1 [CBK288162] | 59.4334
32 | COC(=O)c1c(NC(=S)NCc2ccc(S(N)(=O)=O)cc2)sc2c1CCC2 [CBK266926] | 117.96
33 | Cc1nc(C)c(CNC(=O)NC2CCCN(c3ccn(C)n3)C2=O)s1 (centres unmarked) [CBK305457] | 64.0685
34 | COc1ccc(C2(CN3CCC(NC(=O)C4CC4)CC3)CC2)cc1 [CBK285358] | 92.0658
35 | COc1ccc([C@H]2CN(Cc3ccccc3)C[C@@H]2NC(C)=O)cc1 [CBK282930] | 95.6821
36 | O=C(CSCC(=O)c1ccc(F)cc1)Nc1ccc2ccccc2c1 [CBK263264] | 121.022
37 | COC(=O)c1ccccc1NC(=O)CSc1nnnn1C [CBK267441] | 107.807
38 | CCn1c2ccccc2c2cc(/C=N/c3cc(S(=O)(=O)c4ccc(O)c(/N=C/c5ccc6c(c5)c5ccccc5n6CC)c4)ccc3O)ccc21 [CBK261229] | 40.4478
39 | CN(C)c1ccc(CC(=O)N2CCc3ccccc3C2)cc1 [CBK200340] | 108.41
40 | Cc1cc(Br)ccc1S(=O)(=O)Nc1nc(-c2c(F)cccc2Cl)cs1 [CBK200026] | 50.8014
41 | Cc1ccc(N(CC(=O)O)S(=O)(=O)c2ccc(C)cc2)cc1 [CBK262409] | 85.8627
42 | CN1CCN(c2n[nH]c(N)n2)CC1 [CBK026743] | 63.414
43 | Nc1nc2c(s1)c(O)nc(=O)n2Cc1ccccc1 [CBK291257] | 133.232
44 | O=C(NCc1n[nH]c(=S)n1-c1cccc(C(F)(F)F)c1)c1cccs1 [CBK067697] | 104.357
45 | Oc1cccc(Sc2nc3ccccc3nc2N2CCCC2)c1 [CBK093753] | 125.002
46 | Cc1nonc1CNC(=O)C1CC2C=CC1C21CC1 (centres unmarked) [CBK281678] | 113.685
47 | Cc1nn(C)cc1S(=O)(=O)N1CCc2cc(Cl)ccc21 [CBK282802] | 71.8943
48 | CCOc1ccccc1C1C=C(C(=O)O)Nc2c(C(=O)Nc3ccccc3)cnn21 (centres unmarked) [CBK287253] | 124.35
49 | CCC(=O)Nc1nc(-c2ccco2)c(-c2ccncc2)s1 [CBK284495] | 77.582
50 | c1csc(-c2nccnc2NCCCN2CCOCC2)c1 [CBK036632] | 98.7965
51 | Cn1c(CCC(=O)Nc2ccc3c(c2)CN(Cc2ccccc2)C3)nc2ccccc21 [CBK285990] | 81.5621
52 | COc1cc(/C=N/NC(=O)C(=O)Nc2ccc(C)c(C)c2)ccc1O [CBK262225] | 51.4596
53 | c1coc(-c2nccnc2NCCCN2CCOCC2)c1 [CBK038086] | 119.203
